In PubChem BioAssay AID1346428 (National Center for Advancing Translational Sciences (NCATS), 2018):
In all, about 48,000 compounds went through this assay and about 1,200 (2.5%) were called active. Inconclusive results (about 2%) are left out.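 How the source made its calls: active means activation of at least 60% and not above a set upper limit (about 1 call in 100 departs from these limits); inconclusive means activation of 40% to 60%, or above that upper limit; inactive means activation under 40%.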 The list shows a part of the results.

target: Probable G-protein coupled receptor 32 (Homo sapiens) (UniProt O75388); test: qHTS for Agonists of Human Resolvin D1 Receptor DRV1; conditions: CHO-K1 GPR32 beta-arrestin PathHunter luminescence, 90 min; at 76.9 µM; stronger effect = higher value; zero percent set by DMSO-only wells; further: 0% is about no effect
UniProt O75388, sequence (O75388 whole entry, looked up): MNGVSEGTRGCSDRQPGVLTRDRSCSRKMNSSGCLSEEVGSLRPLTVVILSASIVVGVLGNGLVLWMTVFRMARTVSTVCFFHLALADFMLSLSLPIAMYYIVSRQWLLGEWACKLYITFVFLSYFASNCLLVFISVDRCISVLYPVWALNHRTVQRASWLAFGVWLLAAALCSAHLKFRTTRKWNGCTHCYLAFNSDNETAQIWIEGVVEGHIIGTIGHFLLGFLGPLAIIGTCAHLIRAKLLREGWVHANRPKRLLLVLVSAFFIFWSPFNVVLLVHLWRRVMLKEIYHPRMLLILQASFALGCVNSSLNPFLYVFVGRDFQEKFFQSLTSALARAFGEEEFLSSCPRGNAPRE
Summary of the method: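 CHO-K1 cells stably expressing ProLink-tagged GPR32 and Enzyme Activator-tagged beta-arrestin were seeded at 2,500 cells/well overnight, exposed to compounds for 90 min at 37 °C, then read by beta-Gal complementation chemiluminescence after 1 h detection reagent.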

activation, inactive:
CCOC(=O)c1[nH]c(C)c(CCC(=O)Nc2cc(C)ccc2OC)c1C -12.9%
CCC(Sc1nc(-c2ccccc2F)nc2c1Cc1c(CO)cnc(C)c1O2)C(=O)Nc1cc(C)ccc1C (stereo not drawn) 0.267%
CCOc1ccc(CCNC(=O)C2=C(C)C(=O)OC23CCCCC3)cc1 -18.3%
Cc1ccccc1CN1CCC(CNC(=O)c2c(C)oc3ncnc(N4CCCCC4)c23)CC1 -2.16%
CCN1C(=O)c2ccccc2S(=O)c2ccc(C(=O)N3CCN(c4cc(Cl)ccc4C)CC3)cc21 (stereo not drawn) -8.84%
CN(Cc1ccccc1)C(=O)c1ccc2c(c1)N(Cc1ccccc1Cl)C(=O)c1ccccc1S2 -27.6%
Fc1ccc(-c2noc3ncnc(NCc4ccc(Cl)cc4)c23)cc1 -2.61%
O=C(CCn1c(=O)c2cccn2c2cccnc21)NCc1ccc(F)cc1 -13.4%
COc1cc(C2CC(=O)Oc3c2c(=O)n(C)c2ccccc32)ccc1O (stereo not drawn) 12.6%
Nc1ccc([N+](=O)[O-])c(C(F)(F)F)c1 -37.8%
COc1ccc(-c2cc(C(C)=O)c(C)n2CCC(=O)Nc2cc(Cl)ccc2C)cc1 -21.4%
CCOC(=O)C1CCN(S(=O)(=O)c2ccc3c(c2)N(C)C(=O)CC(=O)N3C)CC1 -0.982%
COc1ccc(C(=O)NC2(C(F)(F)F)C(=O)Nc3c2c(=O)[nH]c(=O)n3CCc2ccc(OC)c(OC)c2)cc1 (stereo not drawn) -1.72%
CCOC(=O)c1c(C)[nH]c(C)c1S(=O)(=O)N(C)CC(=O)Nc1ccc(C)cc1C -38.4%
O=C(COc1ccccc1)Nc1ccc2nc(SCCOc3ccccc3)sc2c1 -4.95%
Cc1ccc(Cl)cc1N1CCN(C(=O)c2ccc(CS(=O)(=O)c3ccccc3C)o2)CC1 -2.62%
Cc1ccc(NC(=O)Cn2c(=O)n(CC3CCCO3)c(=O)c3ccccc32)cc1 (stereo not drawn) -1.34%
Cc1cc(C)c2oc(-c3cccc(NC(=O)COc4ccc([N+](=O)[O-])cc4)c3)nc2c1 -13.3%
COc1cc2nc(NC(=O)c3ccc(S(=O)(=O)N4CCOCC4)cc3)sc2cc1OC 25.3%
CCCS(=O)(=O)N1CC(=O)N(c2ccc(Cl)cc2C)C(C)(C(=O)NC2CCCC2)C1 (stereo not drawn) -5.28%
COc1ccc(NC(=O)CSC2=Nc3ccccc3C3=NC(CCC(=O)NC4CCCCC4)C(=O)N23)cc1 (stereo not drawn) -24.9%
N[C@@H](CSCCCO)C(=O)O -20.1%
CCOC(=O)c1cccc(NC(=O)CCn2c(-c3ccc(F)cc3)cc(C(=O)OCC)c2C)c1 -29%
CC(=O)c1cccc(NC(=O)C2CCN(S(=O)(=O)c3ccc4c(c3)oc(=O)n4C)CC2)c1 13%
COc1c(C)cccc1C(=O)Nc1cccc2ccc(C)nc12 -4.93%
O=C(CSCc1ccccc1Cl)N1CCN(c2ccc(Cl)cc2)CC1 -17.5%
O=C(O)/C=C/c1cnc[nH]1 -6.19%
O=C1CC[C@H](C(=O)N2CCCCC2)N1 2.09%
COc1ccc(Cn2ccn(Cc3cccc(OC)c3)c(=O)c2=O)cc1 -9.35%
CCOC(=O)C1CCN(C(=O)c2ccc(-n3ccc4ccccc43)s2)CC1 -23.9%
Cc1cccc(NC(=O)N2CC(=O)Nc3sc4c(c3C2c2ccccc2)CCCC4)c1C (stereo not drawn) -33.5%
Cc1ccc(C(=O)c2cn(CC(=O)Nc3ccc(C)cc3Cl)c3nc(C)ccc3c2=O)cc1 7.12%
CCOc1cc(CNC(=O)c2ccc3c(c2)NC(=O)C2CCCCN32)cc(OCC)c1OCC (stereo not drawn) 19.3%
Cc1ccc(Cl)cc1N1CCN(C(=O)c2ccc3c(c2)N(Cc2ccc(F)cc2)CCS3)CC1 -20.1%
Cc1cn2c(=O)cc(COC(=O)c3ccc(NC(=O)COc4ccccc4F)cc3)nc2s1 -13.5%
CCOc1ccccc1OCCCn1c(-c2ccc(Cl)cc2)nc2ccccc2c1=O -10.2%
Cc1cc(C)cc(-n2c(-c3ccccc3)c(C)n3c4c(=O)n(C)c(=O)n(C)c4nc23)c1 2%
CCCCn1cc2c(c1-c1ccc(Cl)cc1)c(=O)n(C)c(=O)n2C -23.9%
COc1cc(OC)c(Nc2nc3ccc(C(=O)c4ccccc4)cc3n3c(C)nnc23)cc1Cl 2.58%
O=c1nc2n(-c3ccccc3F)c3ccccc3cc-2c(=O)[nH]1 -2.79%
O=C(Nc1ccc(OC(F)(F)F)cc1)c1cc2ccccn2n1 20.8%
Cc1cc(C)cc(NS(=O)(=O)c2cc3c(cc2C)NC(=O)CO3)c1 -0.206%
COc1ccc(Cl)cc1NC(=O)c1sc2nc3n(c(=O)c2c1C)CCC3 0.778%
COc1ccc(NC(=O)CSc2nnc(-c3nonc3NC(C)=O)n2-c2ccccc2)cc1 -5.24%
CCC(=O)N(CCC(c1ccccc1)c1ccc2c(c1)OCO2)Cc1ccc(OC(C)C)cc1 (stereo not drawn) -14%
CCOC(=O)c1c(NC(=O)c2ccc(S(=O)(=O)N(CC(C)C)CC(C)C)cc2)sc2c1CCN(C(=O)OCC)C2 -9.35%
CCC(Sc1nc2ccccc2c(=O)n1CCc1ccc(OC)c(OC)c1)C(=O)N(CC)CC (stereo not drawn) -30.3%
Cc1cc(C)n(-c2nc3ccccc3nc2Nc2cccc(C)c2C)n1 -23.3%
CCOc1ccc(CCNS(=O)(=O)c2cc(Br)cc3c2N(C(C)=O)CC3)cc1OCC -0.108%
CCCN(C(=O)Cn1cnc2onc(-c3ccc(F)cc3)c2c1=O)c1cccc(Cl)c1 -10.7%
CCN(CC)C(=O)Cn1c(=O)n(Cc2ccc(C(=O)NCCc3ccc(OC)c(OC)c3)cc2)c(=O)c2ccccc21 -8.03%
COC(=O)c1c(NC(=O)CCCOc2cccc(C)c2)sc2c1C(C(=O)OC)CC2 (stereo not drawn) -22.5%
CCc1ccc(CN(Cc2cn[nH]c2-c2ccc(OC)cc2)C(=O)Nc2cc(Cl)ccc2OC)cc1 -20.2%
